The other results are listed elsewhere or left out. Most values come without repeats; read them as rough.
How the values were obtained:
Assay in all cases: cell count relative to DMSO control; melanoma cells; higher = more viable cells
Conditions in all cases: library dose: low library concentration; 72 h
MZ2-MEL = tested on: MZ2-MEL
MeWo = tested on: MeWo
RPMI7951 = tested on: RPMI7951
RVH-421 = tested on: RVH-421
SkMel28 = tested on: SkMel28
SkMel2 = tested on: SkMel2
SkMel30 = tested on: SkMel30
SkMel5 = tested on: SkMel5
UACC257 = tested on: UACC257
UACC62 = tested on: UACC62
WM115 = tested on: WM115
WM1716 = tested on: WM1716
WM1745 = tested on: WM1745
WM3526 = tested on: WM3526
WM3619 = tested on: WM3619
WM451Lu = tested on: WM451Lu
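Further: cell number obtained by counting DAPI-stained nuclei in high-throughput microscope images with image analysis software, screen run in 1,536-well plates.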

SMILES	cell count (MZ2-MEL) [%]	cell count (MeWo) [%]	cell count (RPMI7951) [%]	cell count (RVH-421) [%]	cell count (SkMel28) [%]	cell count (SkMel2) [%]	cell count (SkMel30) [%]	cell count (SkMel5) [%]	cell count (UACC257) [%]	cell count (UACC62) [%]	cell count (WM115) [%]	cell count (WM1716) [%]	cell count (WM1745) [%]	cell count (WM3526) [%]	cell count (WM3619) [%]	cell count (WM451Lu) [%]
CCCCCCCCc1ccc(CCC(N)(CO)CO)cc1 [fingolimod] + N#Cc1c(O)c2c(-c3ccc(-c4ccccc4O)cc3)csc2[nH]c1=O [A769662] (first compound 2 µM, partner dose 2 µM)	92.9	94.2	70.4	97.2	91.3	95.9	96.6	106	104	86.1	89.2	65.2	64.7	84	64.8	95.9
NC(=O)c1ccc(N(C(N)=O)c2c(F)cccc2F)nc1-c1ccc(F)cc1F + O=C(Nc1ccccc1)c1cc([N+](=O)[O-])ccc1Cl [GW9662] (first compound 0.4 µM, partner dose 2 µM)	93.2	85.3	94	110	91.1	88.4	80.6	76.2	82.9	76	94.2	108	76.9	71.7	72.6	88.6
Cc1ccc(NC(=O)c2cccc(N(C)C)c2)cc1NC(=O)c1ccc(O)cc1 + Cc1cc(N2CCOCC2)cc2[nH]c(-c3c(NC[C@@H](O)c4cccc(Cl)c4)cc[nH]c3=O)nc12 [BMS536924] (first compound 2 µM, partner dose 0.2 µM)	88.2	106	95.5	90.4	88.6	107	76.6	94.7	104	113	97.2	104	87.7	124	76.9	83.7
CC(C)(C)c1cnc(CSc2cnc(NC(=O)C3CCNCC3)s2)o1 + CN(C)S(=O)(=O)c1ccc2c(c1)/C(=C/c1cc3c([nH]1)CCCC3)C(=O)N2 [SU6656] (first compound 0.01 µM, partner dose 0.4 µM)	101	94	104	61.7	95.4	95.9	115	89.7	77.7	93.3	74.2	91.7	94.2	106	85.3	105
CCCCCCCCc1ccc(CCC(N)(CO)CO)cc1 [fingolimod] + COc1ccc2c(c1)CCC1C2CCC2(C)C(NCCCCCCN3C(=O)C=CC3=O)CCC12 [U73122] (first compound 2 µM, partner dose 0.4 µM)	98.7	93.7	70.1	66.4	94.9	93.8	83.6	85.6	102	86.5	94.4	76.6	82.8	86.8	110	81.2
NC(=O)c1ccc(N(C(N)=O)c2c(F)cccc2F)nc1-c1ccc(F)cc1F + C[C@@H]1CCN(C(=O)CC#N)C[C@@H]1N(C)c1ncnc2[nH]ccc12 [CP690550] (first compound 0.4 µM, partner dose 1 µM)	103	102	96.7	98.7	107	92.9	121	89.7	89.1	98.7	107	112	75.8	84.1	183	114
NC(=O)c1ccc(N(C(N)=O)c2c(F)cccc2F)nc1-c1ccc(F)cc1F + c1cc(-c2cnn3cc(-c4ccc(OCCN5CCCCC5)cc4)cnc23)ccn1 [Dorsomorphin] (first compound 0.4 µM, partner dose 0.4 µM)	93.4	90.6	89.3	90.9	93.9	115	103	114	97.1	117	117	103	86.9	97.1	92.9	109
Cc1ccc(NC(=O)c2cccc(N(C)C)c2)cc1NC(=O)c1ccc(O)cc1 + OCCn1cc(-c2cnc3nnn(Cc4ccc5ncccc5c4)c3n2)cn1 [PF04217903] (first compound 2 µM, partner dose 1 µM)	70.4	93.5	82.9	104	93.1	114	90.4	105	106	103	90.2	91	80.4	93.2	105	128
CCCCCCCCc1ccc(CCC(N)(CO)CO)cc1 [fingolimod] + CC(C)CCN1c2nc(Nc3cc(F)c(O)c(F)c3)ncc2N(C)C(=O)C1C [BID1870] (first compound 2 µM, partner dose 0.2 µM)	95.2	89.7	99.9	106	72	93.2	93.8	95.2	81.8	80	81.6	61.5	76.4	84.1	84.7	93.5
CCCCCCCCc1ccc(CCC(N)(CO)CO)cc1 [fingolimod] + Cn1cncc1[C@@](N)(c1ccc(Cl)cc1)c1ccc2c(c1)c(-c1cccc(Cl)c1)cc(=O)n2C [tipifarnib] (first compound 2 µM, partner dose 0.01 µM)	101	95.9	74.2	99.5	90.1	70.5	89.8	101	78.1	79.3	90.9	67.1	102	81.1	99.8	84.8
NC(=O)c1ccc(N(C(N)=O)c2c(F)cccc2F)nc1-c1ccc(F)cc1F + COc1cc(N2CCC(N3CCN(C)CC3)CC2)ccc1Nc1ncc(Cl)c(Nc2ccccc2S(=O)(=O)C(C)C)n1 [NVP-TAE684] (first compound 0.4 µM, partner dose 0.08 µM)	99.9	92	88.8	97.9	84.6	87.5	96.3	83.6	68	92.4	89.7	102	84.6	91.5	109	106
CCCCCCCCc1ccc(CCC(N)(CO)CO)cc1 [fingolimod] + O=C(O)c1ccc(-c2c[nH]c3ncc(-c4ccccc4)cc23)cc1C1CCCC1 [GSK650394] (first compound 2 µM, partner dose 0.16 µM)	97.5	105	110	129	95.7	93.1	98.9	90.5	82.3	86.3	90.6	97.5	81	83	95.9	124
CCCCCCCCc1ccc(CCC(N)(CO)CO)cc1 [fingolimod] + Cn1cc(/C=C2\C(=O)Nc3cccnc32)c2ccccc21 [GW441756] (first compound 2 µM, partner dose 0.4 µM)	96.2	108	88.9	120	92.6	97.1	104	83.3	83	84.1	91.6	96.4	72.8	88.3	98.8	111
NC(=O)c1ccc(N(C(N)=O)c2c(F)cccc2F)nc1-c1ccc(F)cc1F + NC(=O)Nc1cc(-c2cccc(F)c2)sc1C(=O)N[C@H]1CCCNC1 [AZD7762] (first compound 0.4 µM, partner dose 0.02 µM)	113	98.3	86.5	141	91.1	111	102	99.8	124	92.9	88	94.1	76.2	74	55.4	62.9
CC(C)(C)c1cnc(CSc2cnc(NC(=O)C3CCNCC3)s2)o1 + OCCn1cc(-c2cnc3nnn(Cc4ccc5ncccc5c4)c3n2)cn1 [PF04217903] (first compound 0.01 µM, partner dose 1 µM)	109	110	109	92.7	107	102	105	101	115	114	105	98.3	94.2	96.5	101	103
CCCCCCCCc1ccc(CCC(N)(CO)CO)cc1 [fingolimod] + COc1cc(Nc2ncc(F)c(Nc3ccc4c(n3)NC(=O)C(C)(C)O4)n2)cc(OC)c1OC [Tamatinib] (first compound 2 µM, partner dose 0.4 µM)	93.3	87	85.8	92.3	74.9	93.7	89.1	71.2	75.4	69.7	94.7	90.9	70.1	61	99.4	85
NC(=O)c1ccc(N(C(N)=O)c2c(F)cccc2F)nc1-c1ccc(F)cc1F + NCC(=O)Nc1ccc(-n2nc(C(F)(F)F)cc2-c2ccc3c(ccc4ccccc43)c2)cc1 [OSU03012] (first compound 0.4 µM, partner dose 1 µM)	100	60.3	95.5	85.8	87.6	88.8	50.4	95.1	115	90.6	84.3	110	88.9	62.5	93.9	93.8
NC(=O)c1ccc(N(C(N)=O)c2c(F)cccc2F)nc1-c1ccc(F)cc1F + O=C(Nc1cccc(Cl)c1)Nc1ncc(CCNc2ncnc3ccsc23)s1 [SNS314] (first compound 0.4 µM, partner dose 0.0008 µM)	103	91.7	96.5	110	86	105	119	112	81.2	90.4	91.1	113	90.5	72	106	104
NC(=O)c1ccc(N(C(N)=O)c2c(F)cccc2F)nc1-c1ccc(F)cc1F + Cn1cc(/C=C2\C(=O)Nc3cccnc32)c2ccccc21 [GW441756] (first compound 0.4 µM, partner dose 0.4 µM)	99.9	115	94.4	89.8	76	102	102	87.3	84.5	97.7	92.3	110	91.9	105	103	109
NC(=O)c1ccc(N(C(N)=O)c2c(F)cccc2F)nc1-c1ccc(F)cc1F + O=S(=O)(c1ccccc1)N(CC(F)(F)F)c1ccc(C(O)(C(F)(F)F)C(F)(F)F)cc1 [T0901317] (first compound 0.4 µM, partner dose 1.4 µM)	100	86.3	82.3	101	76.1	106	122	87.9	104	83.7	89.6	95.8	77.8	80.5	104	100

Reference: the supplement of paper PMC4604168 (melanoma cell lines)
